This note sets out measurements from PubChem BioAssay (NCI).

The structures appear in SMILES notation.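 Step 1: Grow cells in 96-well plates. Step 2: Expose to compound for 48 hours at 5 concentrations. Step 3: Interpolate endpoints linearly; if unreached, use highest concentration. The concentration for 50% growth inhibition is given as GI50. TGI denotes the concentration required for complete inhibition of growth.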 Square brackets hold non-standard residues; d marks the D form. Peptide text beside a SMILES is read from it. * marks the point of attachment. ξ: configuration not given here. Decanoyl(3R-OH) = CCCCCCC[C@@H](O)CC(=O)*; ξK = NCCCCC(N)C(=O)O; ξP = O=C(O)C1CCCN1 Some results are limits rather than exact numbers.

The subject of the assay is NCI-H322M lung. Kind of assay: NCI-60 cell line screen, 48 h.
In the case of `C1CNCCN2CCCNCCN(C1)CC2`, the TGI is greater than 100 µM.
As to `O=[N+]([O-])c1cc2n[nH]nc2c2nonc12`, the TGI was greater than 100 µM.
The same measure, in the same setting: then `O=C1/C(=C/c2ccc(O)cc2)NC(=S)N1CN1CCCCC1`, with greater than 100 µM; and `CCOC(=O)C(Cc1ccc2c(c1)CCC2)(Cc1ccc2c(c1)CCC2)C(=O)OCC`, with greater than 100 µM.
As to `CN(C)c1cccc(-c2cc(=O)c3ccccc3[nH]2)c1`, the TGI is greater than 100 µM.
`O=C1CCc2c3c(c4c([nH]c5ccccc54)c2CC1)C(=O)NC3=O` registered a TGI of 59.5 µM.
For `CN(C)CC(C(=O)c1ccccc1)c1ccccc1` (stereo not given), the GI50 is 15.8 µM and the TGI was found to be 34 µM.
With `COc1ccc2c(=O)c([Se]c3coc4cc(OC)ccc4c3=O)coc2c1`, the TGI was greater than 100 µM.
For `CC(C)OP(=O)(OC(C)C)C(C(F)(F)F)C(F)(F)F`, the TGI was greater than 100 µM.
As for `O=S(=O)(NCCNc1nccc(-c2c(-c3cccc(O)c3)nc3sccn23)n1)c1ccc(F)cc1`, the GI50 was 12.7 µM and the TGI turned out to be 40.6 µM.
Consider `CCOC(=O)C1=C(Nc2ccccc2)OC/C1=N\NC(=O)Cc1ccccc1`, for which the TGI was greater than 50 µM.
The compound `O=C(CC(=O)c1ccncc1)c1ccccc1` showed a TGI greater than 100 µM.
For the compound `CSC1=Nc2c(c(C)c(-c3ccccc3)n2COC(CO)CO)C2=NC(=O)C(C)N12` (stereo not given), the GI50 was greater than 100 µM and the TGI was greater than 100 µM.
As for `COc1cc2c(cc1OCCCCNC(=O)c1cc3ccccc3[nH]1)N=CC1CCCN1C2=O` (stereo not given), the GI50 is 25 µM and the TGI was determined as 53.5 µM.
With `CCSC1(SCC)CCN(C=NC(C)(C)C)C1`, the TGI is greater than 100 µM.
The compound `Nc1nnc2nc(CC(=O)/C=C/c3ccccc3)c(=O)[nH]n12` gave a TGI greater than 100 µM.
Same read-out and setting: for `COc1ccc(C2CCc3nc4nc(N)nc(N)c4cc3C2)cc1` (stereo not given) the value was greater than 100 µM.
Turning to `COc1cc(/C=C/C(=O)C(=Cc2ccc(F)c(F)c2)C(=O)/C=C/c2ccc(O)c(OC)c2)ccc1O`, the GI50 was 5.94 µM and the TGI was 20.7 µM.
`Cc1c2c(c(C)c3c[n+](C)ccc13)Oc1ccccc1O2`: the TGI is greater than 69.6 µM.
Same read-out and setting: then `CC(C)c1cc(C(C)C)c(S(=O)(=O)NN)c(C(C)C)c1`, with greater than 100 µM; and `O=C(O)CC(NC(=O)C(F)(F)F)C(=O)NC1Cc2ccccc2OC1=O` (stereo not given), with greater than 100 µM; and `COc1ccc(/C=C2\N=C(c3ccccc3)OC2=O)c(OCc2ccccc2)c1`, with 89.6 µM.
On to `C=CCCCCOC1C=CC(OC(C)=O)C(COC(C)=O)O1` (stereo not given), for which the TGI is greater than 100 µM.
Same read-out and setting: for `CC(=O)CC(=O)CCCC(=O)Nc1ccc(Cl)cc1C` the value was greater than 100 µM; for `CS(C)(=O)=N/C=C\C(=O)C(Cl)(Cl)Cl`, greater than 100 µM.
The same measure, in the same setting: then `C=C1CC(OC(C)=O)/C=C(/C)CCC(C(C)(C)O)CC1O` (stereo not given), with greater than 100 µM; and `C/C(=N\NC(=O)CC(=O)Nc1ccc(C)cc1)c1cc2ccccc2oc1=O`, with greater than 100 µM; and `Nn1c(CNc2ccc(-c3nnc(Nc4ccc(Cl)cc4)n3N)cc2)nnc1Nc1ccc(Cl)cc1`, with greater than 100 µM.
`CCCCCCC[C@@H](O)CC(=O)N[C@H](CCCCN)C(=O)N[C@H](Cc1c[nH]c2ccccc12)C(=O)NC(CCCCN)C(=O)N[C@H](CC(C)C)C(=O)N[C@H](Cc1ccccc1)C(=O)N[C@H](CCCCN)C(=O)N[C@H](CCCCN)C(=O)N[C@H](CC(C)C)C(=O)N1CCCC1C(=O)N[C@H](CCCCN)C(=O)N[C@H](Cc1ccccc1)C(=O)N[C@H](CC(C)C)C(=O)N[C@H](Cc1c[nH]cn1)C(=O)N[C@H](CC(C)C)C(=O)N[C@H](C)C(=O)N[C@H](CCCCN)C(=O)N[C@H](CCCCN)C(=O)N[C@H](Cc1ccccc1)C(=O)O` (stereo partly drawn) ({Decanoyl(3R-OH)}-[dK][dW][ξK][dL][dF][dK][dK][dL][ξP][dK][dF][dL][dH][dL][dA][dK][dK][dF]-OH): the GI50 is 0.591 µM and the TGI turned out to be 1.07 µM.
`CCCCCCCCCCCCCCCCOC(=O)C(C(=O)OCCCCCCCCCCCCCCCC)[N+](C)(C)CCOC(C)=O` had a TGI of 29 µM.
`Cc1c2cc[n+](COC(=O)c3ccccc3)cc2c(C)c2c1[nH]c1ccccc12` had a TGI of 1.91 µM.
On the same count and under the same terms, for `Cc1cc(C)nc(NS(=O)(=O)c2ccc(Nc3c4ccccc4nc4c(C(=O)NCCN(C)C)ccc(Cl)c34)cc2)n1` the value was 6.4 µM.
As to `COc1ccc(Nc2c3ccccc3nc3c2c2ccccc2n3C)cc1`, the GI50 was greater than 100 µM and the TGI is greater than 100 µM.
As to `CCOC(=O)c1ccc(N=C2SC(=S)N(c3ccc(F)cc3)C2=Nc2ccc(C(=O)OCC)cc2)cc1`, the TGI was greater than 100 µM.
For `C=CCN1C(=O)/C(=c2\sc3n(c2=O)C2C(NN=3)N(CC)C(=O)N2CC)c2ccccc21` (stereo not given), the GI50 was 2.03 µM and the TGI was greater than 100 µM.
With `COC(=O)N1CC[C@@H]2CCC=C(c3cccc4c3OCO4)[C@@H]21`, the TGI is greater than 100 µM.
Still for that read-out and setting: for `COc1cc2cc3c4c(cc(OC)c(OC)c4c2cc1OC)CCN3C(=O)CCCC(=O)O` the value was greater than 100 µM.
With `c1cncc(CNc2ccccc2-c2nnc(Nc3ccc4c(c3)OCO4)o2)c1`, the GI50 is 4.37 µM and the TGI is greater than 100 µM.
The like results for `O=C1C2=C(C(=O)c3c(O)ccc(O)c31)N(c1ccc(N3CCOCC3)nc1)Cc1ccccc1O2` were, in that order, 2.02 µM and 5.14 µM.
The like results for `CCN(CC)CCN1C(=O)c2cccc3c(-c4ccc5c(c4)ncn5C4CCCCC4)ccc(c23)C1=O` were, in that order, 1.94 µM and 5.43 µM.
Turning to `NS(=O)(=O)c1nnc(NC(=O)CCC(=O)O)s1`, the TGI is greater than 100 µM.
The same measure, in the same setting: for `COc1cc2c(cc1C)NC(=O)/C2=C/c1c(Cl)[nH]c2cc(C)c(OC)cc12` the value was 24.1 µM; for `COC1/C=C/C(C)C(OC)CC(O)/C=C/C(C)C(C(C)C(OC)C(C)CCC(=O)C(C)C(C/C=C/N(C)C=O)OC)OC(=O)/C=C/C=C(\C)CC(OC)C(OC)C2=CC(=O)O[C@@H](C(C)C(OC)C1)[C@H]2O` (stereo not given in full), 0.278 µM; for `Cc1cc2c3ccccc3n(C)c2c2c1C(=O)c1ccccc1C2=O`, 40.2 µM.
On the same count and under the same terms, then `COc1c(OC(C)=O)cc2c(OC(C)=O)c1CC(C)CC(OC)C(O)C(C)/C=C(\C)C(OC(N)=O)C(OC)/C=C\C=C(/C)C(=O)N2` (stereo not given), with greater than 100 µM.
Take `COC(=O)/C(C#N)=C\N1CCN(C(=O)c2ccco2)C1=S`: the GI50 was 14 µM and the TGI came to 36.3 µM.
For `Cn1c(-c2ccccc2)cc(-c2ccc3c(c2)OCO3)c1-c1cccs1`, the TGI was greater than 100 µM.
On the same count and under the same terms, for `O=C(NC(=O)c1cn(CCN2CCNCC2)c(=O)[nH]c1=O)OCc1ccccc1` the value was greater than 100 µM; for `c1ccc(Cc2cccc3cc(-c4ccc(-c5ccccc5)cc4)[nH]c23)cc1`, greater than 100 µM.
On the same count and under the same terms, for `COc1cc(N=C(N)N=C(N)N)c2ncccc2c1` the value was greater than 100 µM; for `N#CS/C(C(Cl)=C(Cl)Cl)=C(/Cl)[N+](=O)[O-]`, 33.7 µM; for `O=c1oc2ncccc2n1Cc1ccc([N+](=O)[O-])cc1`, greater than 100 µM.
In turn, `O=C(NCCCN1CCN(CCCNC(=O)c2cnc3ccccc3n2)CC1)c1cnc2ccccc2n1` gave a TGI greater than 100 µM.
`O=C(N/N=C(/COc1cccc(Cl)c1)N=Cc1ccncc1)c1ccncc1` showed a TGI greater than 100 µM.
Same read-out and setting: then `CCCCCCCCCc1cc(O)c(O)cc1CCCCCCCCC`, with greater than 10 µM.
The compound `OC1CN(OC/C=C/c2ccccc2)CC(O)C1O` (stereo not given) had a TGI greater than 100 µM.
Consider `Nc1nc(N)c2cc(CNc3ccc(Cl)c(Cl)c3)ccc2n1`, for which the GI50 is 0.995 µM and the TGI worked out at 2.21 µM.
